From publication PMC4336329 (PLoS ONE, 2015)
In all, about 310,000 compounds went through this assay and about 2,200 (0.71%) showed an effect of 50% or more. Effects have a minus sign here. The list shows a part of the results.

biological target: human ether-à-go-go-related gene (hERG) potassium channel (human, UniProt Q12809); assay: primary screen, population patch clamp on CHO cells stably expressing hERG
Sequence (Q12809 whole entry, looked up): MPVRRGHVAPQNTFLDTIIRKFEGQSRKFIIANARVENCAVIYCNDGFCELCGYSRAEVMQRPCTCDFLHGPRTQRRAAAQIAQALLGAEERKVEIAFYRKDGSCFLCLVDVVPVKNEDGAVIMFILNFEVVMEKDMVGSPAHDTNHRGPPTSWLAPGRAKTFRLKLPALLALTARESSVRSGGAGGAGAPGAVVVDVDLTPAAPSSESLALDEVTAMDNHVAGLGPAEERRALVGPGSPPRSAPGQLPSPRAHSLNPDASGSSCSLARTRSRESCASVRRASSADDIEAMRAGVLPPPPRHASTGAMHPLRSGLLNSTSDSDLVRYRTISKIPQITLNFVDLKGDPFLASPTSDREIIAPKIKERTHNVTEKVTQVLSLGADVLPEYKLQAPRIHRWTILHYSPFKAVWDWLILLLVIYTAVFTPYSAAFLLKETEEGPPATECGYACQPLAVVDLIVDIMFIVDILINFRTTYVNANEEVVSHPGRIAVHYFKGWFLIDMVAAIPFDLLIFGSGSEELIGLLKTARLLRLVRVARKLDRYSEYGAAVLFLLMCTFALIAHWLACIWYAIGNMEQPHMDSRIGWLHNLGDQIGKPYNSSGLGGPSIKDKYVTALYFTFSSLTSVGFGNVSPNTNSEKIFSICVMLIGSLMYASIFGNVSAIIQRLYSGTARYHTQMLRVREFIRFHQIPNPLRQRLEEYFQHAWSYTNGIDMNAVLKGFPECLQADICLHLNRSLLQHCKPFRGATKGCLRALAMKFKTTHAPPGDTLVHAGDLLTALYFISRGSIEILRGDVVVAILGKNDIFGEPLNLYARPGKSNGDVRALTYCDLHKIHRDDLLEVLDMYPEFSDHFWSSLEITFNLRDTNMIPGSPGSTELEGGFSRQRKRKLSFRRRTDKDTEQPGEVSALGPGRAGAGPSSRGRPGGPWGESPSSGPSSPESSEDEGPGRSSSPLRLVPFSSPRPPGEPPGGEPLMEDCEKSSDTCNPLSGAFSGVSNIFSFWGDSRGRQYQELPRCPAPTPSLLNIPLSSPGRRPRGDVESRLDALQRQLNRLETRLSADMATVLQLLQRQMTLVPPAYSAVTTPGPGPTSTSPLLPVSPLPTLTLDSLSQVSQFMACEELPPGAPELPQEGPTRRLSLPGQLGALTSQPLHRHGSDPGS

Row | Compound | hERG current change (%, negative = inhibition) at 1uM [%]
1 | COc1ccccc1NC(=O)c1ccc2c(c1)nnn2C | 10.8
2 | CCONC(=O)Nc1ccccc1[N+](=O)[O-] | 13.4
3 | COc1ccccc1NC(=O)C1CCCN(C(=O)NCc2ccccc2)C1 (stereo not shown) | 9.96
4 | Cc1ccc(NCC(=O)N/N=C/c2cccn2C)cc1 | 15.2
5 | CCN(CC(=O)NC(C)C)C(=O)C(CCSC)NC(=O)c1ccccc1OC (stereo not shown) | 8.89
6 | O=c1c2ccccc2nc(SCc2nnc(-c3ccccc3)o2)n1-c1ccc(F)cc1F | 13.4
7 | COC(=O)c1ccc(CSc2nc3ccc(S(=O)(=O)N4CCOCC4)cc3[nH]2)cc1 | 7.46
8 | O=C(N/N=C/c1ccc(Br)s1)c1cccc([N+](=O)[O-])c1 | 12.4
9 | Cn1c(SCC(=O)OC2CCCCC2)nnc1-c1ccc2c(c1)OCO2 | -3.53
10 | Cc1ccc(S(=O)(=O)n2ccc3cccnc32)cc1 | 9.37
11 | COc1ccc(-c2ccc(SCC(=O)NC3CCCCC3)nn2)cc1OC | 14.8
12 | CCOC(=O)N1CCN(C(=O)c2ccc(N3C(=O)CCC3=O)cc2)CC1 | -2.82
13 | CC(C)CN(CCCNC(=O)CN1C(=O)COc2ccc(S(=O)(=O)N3CCCC3)cc21)CC(C)C | 19
14 | Cc1ncc(C[n+]2csc(CCOC(=O)CC34CC5CC(CC(C5)C3)C4)c2C)c(N)n1.Cl.[Cl-] | 7.2
15 | CNC(=O)c1ccc(NC(=O)CN2c3cccc4cccc(c34)S2(=O)=O)cc1 | 9.49
16 | COc1ccc(OC)c(C2=NOC(C(=O)NCCN3CCOCC3)C2)c1 (stereo not shown) | 3.42
17 | COc1ccc(CCNC(=O)C2CCN(S(=O)(=O)c3ccc(NC(C)=O)cc3)CC2)cc1OC | 9.66
18 | Cc1cccc(N2C(=O)N3[C@@H]4c5ccccc5OC[C@@H]4[C@@H](c4ccccc4)[C@]3(C)C2=O)c1 | 7.05
19 | CCC(C(=O)NCCc1ccccc1)c1ccccc1 (stereo not shown) | 9.68
20 | Cc1cc(-c2cccnc2)c(C#N)c(SCc2cccc(F)c2)n1 | -2.48
21 | Cc1nc2ccccn2c1-c1csc(Nc2ccc(C(=O)O)cc2)n1 | 14.1
22 | Cc1nc2cc(NC(=O)NCCCO)ccc2o1 | 10.6

Row | Compound | hERG current change (%, negative = inhibition) at 1uM [%]
23 | CCCOc1ccc(C(CC(=O)O)NC(=O)CC(c2ccccc2)c2ccccc2)cc1 (stereo not shown) | 11.1
24 | COc1ccc(OC)c(S(=O)(=O)NC(C)c2ccc(-n3ccnc3)cc2)c1 (stereo not shown) | 3.86
25 | O=C(/C=C\c1cccs1)N1CCN(Cc2ccc3c(c2)OCO3)CC1 | -8.92
26 | O=[N+]([O-])c1cc(S(=O)(=O)N2CCCCC2)ccc1NCc1cccc(Cl)c1 | 9.01
27 | Cc1ccc(-c2n[nH]c(=S)n2-c2ccccc2)cc1 | 5.34
28 | Cn1c(CN2CCCC2)c(C#N)c2ccccc21 | 7.43
29 | Cl.Clc1ccccc1CSc1nnc([C@@H]2CCCN2)o1 | 14.9
30 | Cc1[nH]c(=O)nc2c1CCC2 | 14.8
31 | CCn1c(N2CCN(CC(=O)Nc3cccc(C)c3C)CC2)nc2ccccc21 | -26.9
32 | COc1ccc(CNC(=O)[C@H](C)NC(=O)C2CCN(S(=O)(=O)c3ccccc3)CC2)cc1 | 11.3
33 | COc1ccc(N2CCN(C(=O)C3(C)CC3(Cl)Cl)CC2)cc1 (stereo not shown) | 9.18
34 | Cn1c(Cn2c(=O)sc3ccccc32)nnc1SCC(=O)Nc1ccccc1F | 8.63
35 | COc1ccc(C(C#N)CCC2OCCO2)cc1OC (stereo not shown) | -4.41
36 | COc1ccc(CCN2C(=O)CSC2c2ccc(F)cc2)cc1 (stereo not shown) | 15
37 | CC(C)(C)c1csc(Sc2ncccc2[N+](=O)[O-])n1 | 15.2
38 | CC(/C=C/c1ccc(Cl)o1)=C\C(=O)O | 7.22
39 | CC1CN(CCOc2ccc(Cl)cc2Cl)CC(C)O1.O=C(O)C(=O)O (stereo not shown) | 3.42
40 | Cc1cc(C(=O)COC(=O)c2ccc[nH]c2=O)c(C)n1-c1ccc(F)cc1 | -6.89
41 | COc1ccc(S(=O)(=O)NCC2CCCN(C(=O)C=C(C)C)C2)cc1 (stereo not shown) | 11.3
42 | CCOC(=O)C(=O)CC(=O)c1ccc2c(c1)OCCO2 | -8.9
43 | N#Cc1ccccc1COc1cccc2c1CCCC2O (stereo not shown) | 14.1
44 | CCOC(=O)C(CC)n1cnc2c(nnn2-c2ccc(F)cc2)c1=O (stereo not shown) | 2.12

Row | Compound | hERG current change (%, negative = inhibition) at 1uM [%]
45 | O=C(CSc1nnnn1-c1cccc2ccccc12)NC(C(=O)O)(c1ccccc1)c1ccccc1 | 12.2
46 | COc1ccc(S(=O)(=O)NNC(=O)Nc2ccc(C)cc2C)c(OC)c1 | 9.84
47 | O=C(CC1SC(=O)N(c2ccccc2)C1=O)Nc1ccc(Cl)cc1 (stereo not shown) | 14.5
48 | Cc1ccc(S(=O)(=O)Nc2nc(CN3CCOCC3)nc3sc(C)c(C)c23)cc1 | -4.2
49 | COc1ccccc1CN(C(=O)CCl)C(C(=O)NC1CCCCC1)c1ccncc1 (stereo not shown) | 11.6
50 | Cc1n[nH]c(=O)c2c(NC(=O)CSc3nnnn3-c3ccccc3)oc(C)c12 | 9.93
51 | CCC12CN(C(=O)c3ccc(OC)cc3)CC(CC)(CN(C(=O)c3ccc(OC)cc3)C1)C2=O | 9.71
52 | Cc1cc(C(=O)CCC(=O)NC(C)c2ccc(S(N)(=O)=O)cc2)c(C)s1 (stereo not shown) | 10.3
53 | Cn1c(SCC(=O)Nc2sccc2C(N)=O)nnc1-c1ccncc1 | 3.55
54 | O=C(/C=C/c1ccc(Cl)cc1Cl)NCc1ccncc1 | 12
55 | CN(C)CCSc1nnc(-c2ccccc2)o1.Cl | 1.81
56 | c1ccc(-c2nc3ccccn3c2NC2CCCC2)nc1 | 6.33
57 | CCN(CC)Cc1c(C(=O)N/N=C/c2ccncc2)nnn1-c1nonc1N | -16.3
58 | O=C(COc1coc(CN2CCN(c3ccccc3)CC2)cc1=O)Nc1cccc(F)c1 | 9.9
59 | Cc1onc(-c2ccc(Cl)cc2Cl)c1-c1csc(N/N=C/c2ccccc2)n1 | 7.93
60 | Cn1nccc1C(=O)Oc1cccc(/C=N/NC(=O)c2ccccc2O)c1 | 12.3
61 | CC(=O)N1c2ccc(S(=O)(=O)N3CCCCC3)cc2CC1C(=O)Nc1ccccc1C(F)(F)F (stereo not shown) | 9.25
62 | O=C(OCc1c(-c2ccccc2)ncc2ccccc12)N1CCOCC1 | 13
63 | CCC(=O)N1CCc2cc(Br)cc(S(=O)(=O)N(C)c3ccc(OC)cc3)c21 | 6.35
64 | CCOC(=O)/C(C#N)=C/C1=C(N2CCOCC2)C(C)(C)OCC1 | 17.1
65 | CCCn1c(=O)c(-c2nc3ccccc3[nH]2)c(O)c2ccccc21 | 6.77
66 | Cc1cc(C(=O)OCC(=O)Nc2ccccc2)c(C)o1 | 7.07

Row | Compound | hERG current change (%, negative = inhibition) at 1uM [%]
67 | COC(=O)C(O)(CC(=O)Nc1cc(Cl)ccc1Cl)C(F)(F)F (stereo not shown) | 3.33
68 | COc1ccc2[nH]c(C(=O)N3CCC(n4nccc4NC(=O)C4CC4)CC3)c(C)c2c1 | 8.32
69 | Cc1ccc([N+](=O)[O-])cc1S(=O)(=O)NCCc1c(C)[nH]c2ccccc12 | 4.4
70 | CCCOc1ccc(C(=O)NNC(=S)NC(=O)c2cc(-c3ccccc3)nc3ccccc23)cc1 | 3.17
71 | CC(=O)c1cccc(NC(=O)N2CCC(c3ccc(C)cc3)C2)c1 (stereo not shown) | 12
72 | O=C(N/N=C/c1ccccc1O)C1CC(=O)N(c2ccc(Cl)cc2)C1 (stereo not shown) | 13.3
73 | O=C(c1cc2ccccc2o1)N(C1CC1)C1(C(=O)Nc2ccccc2)CCCC1 | 11.9
74 | COc1ccc(S(=O)(=O)N2CCOCC2)cc1NC(=O)c1cc(C)oc1C | -2.29
75 | Cc1ccc(-c2noc(CCCC(=O)N3CCOCC3)n2)cc1 | 3.78
76 | Cc1cccc(C(=O)NCC(=O)OCC(=O)c2cc(C)n(CC3CCCO3)c2C)c1 (stereo not shown) | 6.88
77 | Cc1ccc(S(=O)(=O)Oc2ccc(/C=C(/NC(=O)c3ccccc3)C(=O)NCC(=O)O)cc2)cc1 | 10.2
78 | Cc1ccc(N=C2C(=O)Nc3ccccc32)cc1 | 1.54
79 | Cc1ccc(Cl)c2c1=NC(=O)C=2c1[nH]c(=S)[nH]c1O | 4.5
80 | O=C(NC(=S)NCc1cccnc1)c1ccccc1F | 9.44
81 | C=CCN(CC=C)C(=S)Nc1ccccc1 | 13.8
82 | Cc1ccc(-c2csc3ncnc(-n4nc(C)cc4N)c23)cc1 | 1.99
83 | COc1ccc2c(c1)CCc1c(C(=O)Nc3c(C)nn(Cc4ccccc4)c3C)noc1-2 | 11.6
84 | COc1ccc(C2C3=C(CC(C)(C)CC3=O)N(C)C3=C2C(=O)CC(C)(C)C3)cc1 | 6.72
85 | CCCCN(C/C=C/c1ccccc1OC)Cc1ccccc1 | 14.4
86 | COc1ccc(-c2csc(-c3cccs3)n2)cc1OC | 9.38
87 | COc1cccc(NC(=O)c2cc(=O)c3ccccc3o2)c1 | 13.2
88 | Cc1ccc(C)c(N=Cc2ccc(-c3ccc([N+](=O)[O-])cc3)o2)c1 | 12.6
